# Experimental data as given in PubChem BioAssay AID1963576 (National Center for Advancing Translational Sciences (NCATS), 2024).
# Among all 46,000 compounds or so, about 60 (0.1%) were called active. Inconclusive results (about 3%) are left out. Calls follow the shape of the dose curve; as a rule, active = well fitted inhibition curve with a large enough effect; inconclusive = small, poorly fitted or top-dose-only effect; inactive = no such curve, though single readings can be large or run the other way. This is one part of the list.
# Test: Primary qHTS assay for Inhibitors of ovarian cancer metastasis using an organotypic tumor microenvironment (TME) model. Also: nearly all actives have a fitted effect of over 65% in size.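 As to activity change, negative = inhibition: plate controls were DMSO wells for no effect and tomatine positive control wells for full effect.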
# Settings: SKOV3ip1-GFP adhesion/invasion on 3D omental model, fluorescence; series mostly up to 45.8 µM; activity change, negative = inhibition: at the top concentration
# Summary of the method: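 Primary human omental fibroblast/mesothelial 3D culture pre-formed 48 h. SKOV3ip1-GFP cells added with compounds (0.36-46 umol/L), incubated 2 h RT/16 h 37 C, fixed; GFP cells quantified at 488/509 nm.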
Compound,"activity change, negative = inhibition",outcome
C=C[C@@H]1CN2CCC1C[C@H]2[C@H](O)c1ccnc2ccccc12 (stereo partly drawn),inactive: 7.84%,
Cc1sc2c(c1C)C(c1ccc(Cl)cc1)=N[C@@H](CC(=O)OC(C)(C)C)c1nnc(C)n1-2,inactive: -10.5%,
Cc1ccc(-n2c(=O)[nH]c3ccc(Br)cc3c2=O)cc1,inactive: -23.5%,
CSCC[C@@H](NC(=O)[C@@H](Cc1ccccc1)NC(=O)CNC(=O)CNC(=O)[C@@H](N)Cc1ccc(O)cc1)C(=O)O,inactive: -5.59%,
O=C(Nc1ccc(F)c([N+](=O)[O-])c1)c1cccn(Cc2ccccc2)c1=O,inactive: -5.53%,
Cc1cccc(OCC(=O)N2CCN(CCc3ccccn3)CC2)c1,inactive: 6.16%,
O=P1(N(CCCl)CCCl)NCCCO1 (stereo not drawn),inactive: -6.64%,
O=C(COc1cc(Cl)ccc1Cl)Nc1ccc(Cl)cc1C(=O)c1ccccc1,inactive: -1.86%,
CN1C(=O)CCS(=O)(=O)C1c1ccc(Cl)cc1 (stereo not drawn),inactive: 28.2%,
CN(C)[C@@H]1C(=O)C(C(N)=O)=C(O)[C@@]2(O)C(=O)C3=C(O)c4c(O)cccc4[C@@](C)(O)[C@H]3[C@H](O)[C@@H]12,inactive: -3.63%,
O=C(COc1ccccc1F)N1CCN(Cc2cc(=O)n3nc(-c4ccccc4Cl)sc3n2)CC1,inactive: 2.87%,
N#C[C@H](O[C@@H]1O[C@H](CO[C@@H]2O[C@H](CO)[C@H](O)[C@H](O)[C@H]2O)[C@H](O)[C@H](O)[C@H]1O)c1ccccc1,inactive: -17.6%,
Cc1ccc2c(c1)C(Cc1nc3ccccc3c(=O)n1-c1ccc(Br)cc1)C(=O)N2 (stereo not drawn),inactive: 0.159%,
COc1ccc(NC(=O)c2sc3nc4c(cc3c2N)N2CCC4CC2)cc1OC,inactive: 6.81%,
Cc1cccc(-c2nc(CN3C(=O)CN=C(c4ccccc4)c4ccccc43)c(C)o2)c1,inactive: 0.923%,
CC(=O)O[C@@]12CO[C@H]1C[C@H](O)[C@@]1(C)C(=O)[C@H](O)C3=C(C)[C@@H](O)C[C@@](O)([C@@H](OC(=O)c4ccccc4)[C@@H]21)C3(C)C,inactive: -0.273%,
Cc1ccc(-n2c(/C=C\c3ccc(F)cc3)nc3ccccc3c2=O)cc1Cl,inactive: 27%,
CC(C)C12CN3CC(C(C)C)(CN(C1)C3c1ccccn1)C2=O (stereo not drawn),inactive: 2.52%,
CCOc1ccc(NC(=O)Cn2cc(C(=O)c3ccccc3)c3ccccc32)cc1,inactive: -3.27%,
COc1ccc(C)cc1NC(=O)N(Cc1ccc2c(c1)OCO2)C1CCN(Cc2ccccc2)CC1,inactive: -3.95%,

Compound,"activity change, negative = inhibition",outcome
Cc1ccc2nc(NC(=O)c3cccn(Cc4ccc(Cl)cc4)c3=O)sc2c1,,inactive
COC[C@@H](NC(C)=O)C(=O)NCc1ccccc1,inactive: 3.52%,
Cc1ccc(Cl)cc1NC(=O)N(Cc1ccc2c(c1)OCO2)C1CCN(Cc2ccccc2)CC1,inactive: 1.43%,
Cn1c(=O)n(C)c2cc(CNCCc3ccc(F)cc3)ccc21,inactive: 1.09%,
Cc1ccc(NC(=O)Cn2cc(C(=O)c3ccccc3)c3ccccc32)cc1,,inactive
CNC(=O)N1N=C(c2ccc(N)cc2)c2cc3c(cc2CC1C)OCO3 (stereo not drawn),inactive: -8.14%,
Cc1ccc(Cn2cccc(C(=O)Nc3ccc4c(c3)OCO4)c2=O)cc1,,inactive
CC1=NN=C(c2ccc(N)cc2)c2cc3c(cc2C1)OCO3,inactive: 6.68%,
Cc1cccc(Cn2cccc(C(=O)Nc3ccc4c(c3)OCCO4)c2=O)c1,inactive: -5.99%,
CCN(CC)CCSc1nc2ccccc2c(=O)n1-c1ccc(Cl)cc1,inactive: -0.313%,
COc1cccc(NC(=O)Cn2cc(C(=O)c3ccccc3)c3ccccc32)c1,,inactive
CCCOc1ccc(C2SCC(=O)Nc3c2c(C)nn3-c2cccc(C)c2)cc1OC (stereo not drawn),,inactive
COc1ccc(C(CN(C)C)C2(O)CCCCC2)cc1 (stereo not drawn),inactive: 6.83%,
COc1ccc(C(=O)Nc2ccc(Cl)cc2C(=O)c2ccccc2)c(OC)c1,inactive: -3.62%,
Cc1ccccc1CN1C(=O)CN=C(c2ccccc2)c2cc(Cl)ccc21,,inactive
Cc1ccc(OCC(=O)N2CCN(CCc3ccncc3)CC2)cc1C,inactive: -3.67%,
Cc1ccc(-n2c(/C=C/c3cc(Br)cs3)nc3ccccc3c2=O)cc1,,inactive
O=C(Oc1ccc([N+](=O)[O-])cc1)N1CCN(Cc2cccc(Oc3ccccc3)c2)CC1,inactive: -27%,
O=c1c2ccccc2nc(/C=C\c2ccccc2F)n1-c1ccc(O)cc1,inactive: 3.52%,
CCCCc1ccc(NC(=O)c2cccn(Cc3ccc(Cl)cc3)c2=O)cc1,,inactive

Compound,"activity change, negative = inhibition",outcome
Cc1c(C(c2ccc(Cl)cc2Cl)c2c(O)c3ccccc3oc2=O)c(=O)n(-c2ccccc2)n1C (stereo not drawn),inactive: 0.649%,
Cc1cc(-n2c(/C=C/c3ccc(Br)s3)nc3ccccc3c2=O)ccc1Br,,inactive
Cc1cc(-n2c(/C=C/c3cccs3)nc3ccccc3c2=O)ccc1Br,inactive: 0.957%,
O=c1c2ccccc2nc(/C=C/c2cccc3ccccc23)n1-c1ccccc1Cl,inactive: -3.16%,
COc1ccc(Cl)cc1NC(=O)CN1C(=O)CN=C(c2ccccc2)c2cc(Cl)ccc21,inactive: -17.8%,
Cc1ccc(-n2c(/C=C/c3ccc(Br)s3)nc3ccccc3c2=O)cc1,inactive: 20%,
COc1ccc(C(=O)c2c(C)n(CCN3CCOCC3)c3ccccc23)cc1,inactive: -2.19%,
CCc1ccc(NC(=O)c2cccn(Cc3cccc([N+](=O)[O-])c3)c2=O)cc1,,inactive
Cc1[nH]nc2ccc(-c3cncc(OC[C@@H](N)Cc4c[nH]c5ccccc45)c3)cc12,inactive: -4.94%,
CO[C@H]1CCC(O[C@H]2C[C@H]([C@]3(C)CC[C@]4(C[C@H](O)[C@@H](C)[C@@H]([C@@H](C)C=C(C)C(=O)[C@H](C)C[C@H](C)C(=O)O)O4)O3)O[C@]3(O[C@@H]([C@H]4O[C@@](O)(CO)[C@H](C)C[C@H]4C)C[C@H]3C)[C@H]2C)O[C@H]1C (stereo partly drawn),inactive: -19.5%,
CNCC(O)c1ccc(O)cc1 (stereo not drawn),inactive: -0.226%,
N#Cc1cc2c(nc1SCC(=O)Nc1ccc(OC(F)(F)F)cc1)C1CCN2CC1,inactive: -16.5%,
O=C(COc1ccccc1Cl)N1CCN(CCc2ccncc2)CC1,inactive: 2.66%,
CC(=Cc1csc(C)n1)[C@@H]1C[C@H]2O[C@@H]2CCC[C@H](C)[C@@H](O)[C@@H](C)C(=O)C(C)(C)[C@@H](O)CC(=O)O1,inactive: -13.6%,
O=C(COc1cccc(Cl)c1)N1CCN(CCc2ccncc2)CC1,inactive: 4.14%,
Cc1ccc(Cn2cccc(C(=O)Nc3cc([N+](=O)[O-])ccc3C)c2=O)cc1,,inactive
O=S1(=O)N(Cc2ccccc2)CCCN1Cc1cccc(Cl)c1,,inactive
Cc1cccc(NC(=O)Cn2cc(C(=O)c3ccccc3)c3ccccc32)c1,,inactive
